± gives the standard deviation of the averaged measurements. The list shows a part of the results.
Test system: PfAP2-LT AP2 domain (GST-tagged)
Assay: gcPBM binding intensity (ln(normalized median fluorescence intensity)); higher = stronger DNA binding
Method in brief: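 The highest Masliner-normalised natural-log median intensity across replicate spots of either probe orientation is reported as binding intensity. GST-tagged P. falciparum DNA-binding domains expressed in E. coli were applied for 1 h to an Agilent 4 × 180k array of primer-extended double-stranded 36-bp intergenic genomic probes plus negative controls, and bound protein was detected with Alexa488 anti-GST antibody and scanned at 488 nm.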

Row | Sequence | gcPBM binding intensity (ln)
1 | TAAAGTTATATATTATGTACATATTTGTATACATTT [XGTACX_site2516] | 8.93 ± 0.41
2 | CAATAAATCGAAATCGTGCACGGACACATGCAGTAG | 9.21 ± 0.38
3 | GGTTCATTTATATGGAGTACAAAAAATATGTATATA [XGTACX_site8209] | 8.65 ± 0.45
4 | AAATAATATAAATACACACACACATATATAAATACA [CACACA_site4465] | 10 ± 0.14
5 | ATATATATAATAAGTGGTACAAGTTATTCATTAAAT [XGTACX_site7063] | 8.85 ± 0.53
6 | TTTTTATATAAATAATGTACATTTGGTTTTATTATA [XGTACX_site2125] | 8.62 ± 0.47
7 | ACAAAAATATTATATTGTACATTATTAGTTCATATT [XGTACX_site6750] | 8.78 ± 0.41
8 | AACACCCACAGACACACACACAAAAATGATTAAAAA [CACACA_site2433] | 9.69 ± 0.46
9 | TATTTGTATAAATAAAAATAATATATATCAAATAAC [CACACA_negctrl_site218] | 8.54 ± 0.42
10 | AATTTTTTTTTTTTTTTTTCTTTTGTAATAAACCAT [XGTACX_negctrl_site334] | 8.4 ± 0.56
11 | TTCAGCATAAACACTTGTACATATATACTAAAAATT [XGTACX_site7272] | 8.63 ± 0.44
12 | AAAAAAAAAAAACACACACACACACCGAAATATATA [CACACA_site4261] | 9.99 ± 0.33
13 | CGTTGTAGGGAATGTAGTACAGTTATTATTTTATTA [XGTACX_site2429] | 8.7 ± 0.33
14 | TCATACATTTTCAGCCTGCACTTATATTTAATAATA [GTGCAC_site9863] | 8.69 ± 0.42
15 | TATATATATAAATACACACACACACCGATATATATA [CACACA_site5408] | 9.97 ± 0.11
16 | ATATATATATATTATACACACGCCGAAAAAATAAAA [CACACA_site1551] | 9.15 ± 0.33
17 | TTACGAAAAAACAAGAGTACATGATGTTATAAAATA [XGTACX_site1412] | 8.77 ± 0.51
18 | TTTATTTTATCTAAAAGTACTTAAATTAGTGTATTT [XGTACX_site5696] | 8.46 ± 0.4
19 | ATTATGTGAGGTAACTAAATATGTACGTAACGAAGA [CACACA_negctrl_site1400] | 9.04 ± 0.42
20 | ATTATATTTTTAAGTACACACATATAAATAAATATA [CACACA_site7682] | 8.67 ± 0.38
21 | TATTAATTATTTTACTGTACTAATAATACTTTTATT [XGTACX_site2179] | 8.76 ± 0.47
22 | TAATGTATAATTAATCGTACATTAGATTGTTGTGTT [XGTACX_site52] | 8.82 ± 0.4
23 | ATATATATATATGTGTGTACTTAAAAATATAATGCA [XGTACX_site7753] | 9.36 ± 0.3

Row | Sequence | gcPBM binding intensity (ln)
24 | ATTTCCCCAACGTGGGTGCATATATTTATGTGTGAA [GTGCAC_site9439] | 8.81 ± 0.44
25 | TTTCGTAAACAAATTTGTACGTACAAATTTATAAAT [XGTACX_site8175] | 8.64 ± 0.42
26 | TTTTTACTAATAAGATGTACATATATCCTAAGCATA [XGTACX_site251] | 8.47 ± 0.45
27 | TCTTTTATTAGTAAAAGTACTTATATAAATATTATA [XGTACX_site5099] | 8.23 ± 0.47
28 | TACATACATACATACACACATACATATATATATATA [CACACA_site1387] | 9.56 ± 0.28
29 | ATAATATAATAAACGTGTACACAATTAAATTATTAT [XGTACX_site3491] | 9.01 ± 0.31
30 | TGTTTTTTATTTAATTGTACGAATTAAAAAAAATAA [XGTACX_site3009] | 8.04 ± 0.36
31 | TTCCAACCATAGTATTCACACATTGTTTTATTCCAT [CACACA_site4927] | 8.98 ± 0.43
32 | AATATTCATATGCAGGTGCATTAATTTTTATTAATT | 8.61 ± 0.45
33 | GAAAAAAAAAAAAATACACACAAATTGGTATATAAT [CACACA_site4369] | 9.02 ± 0.4
34 | AATACTCTATTTTATAGTACATATATTATTAATCAC [XGTACX_site6622] | 8.77 ± 0.43
35 | TAGCTCGTTCGGAGCACACACATATAAATAAATATA [CACACA_site7002] | 8.91 ± 0.45
36 | TATCAAATCCAAAGGGGTACATTTTGTTGTCCTAAT [XGTACX_site5575] | 8.63 ± 0.39
37 | TAGGGATTATACCACACACACATACCCATAAATATA [CACACA_site5719] | 9.55 ± 0.33
38 | ATAGACAGCGCACAAACACACAAACACGCACGCACA [CACACA_site6349] | 9.69 ± 0.23
39 | TATTAACAAAATTTTTAACACACAAAAAAAAAAAAA [CACACA_site8542] | 8.59 ± 0.47
40 | TTTTTTGTTATATTTGTGCGCAAAAATTGCTGCTTG | 8.94 ± 0.51
41 | CATAATATATTTTATGCATGCAAAGCAACCTTTTGA [TGCATGCA_site715] | 8.71 ± 0.36
42 | TTTGTAAAATAATATCTTTCATGTCCTTACTAATTA [GTGCAC_negctrl_site145] | 8.69 ± 0.56
43 | AAAATTTATGTAAAATGTACATACATAAATAAAGAT [XGTACX_site4339] | 9.11 ± 0.48
44 | ATTATATATATATATAAACACACATAAATATAAATA [CACACA_site8291] | 8.96 ± 0.39
45 | TATTTATTTAAAGGCACACATATTTTTATACTTTCT [CACACA_site3163] | 8.79 ± 0.49
46 | CAAATTTTTTATTAAACACACAAACATATATTTATA [CACACA_site6992] | 8.53 ± 0.45

Row | Sequence | gcPBM binding intensity (ln)
47 | AAAAAAGAAAAGAAATCATGAAAGAATCAAATAAAG [CACACA_negctrl_site1771] | 8.79 ± 0.49
48 | TTTTTATATATATTCTCACACACTTTTTATTTTAAC [CACACA_site657] | 9.04 ± 0.47
49 | TAAGGAAAAAATTATAGTACATAATAAATGTATATA [XGTACX_site8328] | 8.62 ± 0.57
50 | ATAAATATATTTCACGCACACACACCCCAAATAAAT [CACACA_site9272] | 10.1 ± 0.2
51 | TAAAAAACTTCGTGTTCACACATGTACTATATTATT [CACACA_site4796] | 8.79 ± 0.42
52 | TTTTTTTTTTTTTGTTGTACATTAAATATATTATTA [XGTACX_site7254] | 8.56 ± 0.5
53 | ACCCATAAGATAATTACACACAATACATCCCTATAT [CACACA_site5262] | 9.39 ± 0.24
54 | AAGCATATTATAAACACACACTGTATAAAGATATAT [CACACA_site6277] | 9.27 ± 0.37
55 | AAGTATAACCTTTATAATAATGACATGACCGATTTT [CACACA_negctrl_site395] | 8.7 ± 0.38
56 | TATAACCGAATGTGTACACAAAATAATGTTATATAT [CACACA_site5627] | 9.18 ± 0.42
57 | ATAATACGAATTTGTAGTACATTTATAATAACATGA [XGTACX_site2614] | 8.65 ± 0.38
58 | ATATAACGAATAATTACACACTATAAAAAAAGATCT [CACACA_site2862] | 9.01 ± 0.47
59 | CTTTTAAATTATTTTTGTACATAATTATATATATAT [XGTACX_site4128] | 8.73 ± 0.47
60 | AACTATAAATATAAATGTACACATATGTAATATATA [XGTACX_site6085] | 8.87 ± 0.37
61 | TACTGTTTAAAATATAAACACACATTGTTTGCTTTA [CACACA_site8358] | 8.86 ± 0.47
62 | AAAAGGAAAATTTTCTTAGTAACTGCATTAAGAGAT [GTGCAC_negctrl_site675] | 8.68 ± 0.47
63 | TGGAAAAATAGGCACACACACATATATACATATATA [CACACA_site1297] | 9.72 ± 0.33
64 | TTTTAATAACCAATCCGTACATATAATCTTTATATT [XGTACX_site536] | 8.54 ± 0.57
65 | TTATTATATTCTCCTTCACACACAAAAATATTTCAT [CACACA_site8738] | 9.15 ± 0.38
66 | TGAAAAATTACAAAAATAATAAAATGAAATAATAAA [GTGCAC_negctrl_site53] | 8.6 ± 0.54
67 | TAAAAGTTATAAGAGTGTACGTATATTTATATATCA [XGTACX_site2972] | 8.63 ± 0.35
68 | AGGACTAATATTTGAACACACATATAACATATACAT [CACACA_site7803] | 8.99 ± 0.48
69 | CCTCTTTATTTTAATTGTACATTTTTGTAGGTTTTT [XGTACX_site7130] | 8.9 ± 0.52

Row | Sequence | gcPBM binding intensity (ln)
70 | ATGTATATATATATATGTACTAATTAGTAATTTACG [XGTACX_site6276] | 9.03 ± 0.52
71 | AAAACAAACCCATTTACACACATAAATAAATCAATT [CACACA_site6126] | 9.38 ± 0.3
72 | TCCTTTTTTTTGTAATGTACTTAGTTTGGTTATATG [XGTACX_site8208] | 8.95 ± 0.45
73 | TATTTACATGTAAAAGGTACACACATTATATATACA [XGTACX_site2157] | 9.1 ± 0.39
74 | ATACACTTTTATATATCAATACATTATGTATTAAGT [CACACA_negctrl_site421] | 8.86 ± 0.35
75 | TTTATTATTTTTTGTAGTACTTTATATAAAAGTTCT [XGTACX_site4494] | 8.52 ± 0.54
76 | TTGATTATAATTAGTACACACAAAATACATGCGGGG [CACACA_site2277] | 9.455 ± 0.0071
77 | AAATATATAATACATATGTAATATGCATATATATAT [GTGCAC_negctrl_site450] | 8.98 ± 0.35
78 | TTTTTATTACTTCTCTGTACTCAGGAAAATAAATAT [XGTACX_site2092] | 8.35 ± 0.42
79 | TGAATGTAAGAAAATACACACTAGTATAGTAACACC [CACACA_site5131] | 9.24 ± 0.38
80 | TAAGGAAAAAGAAAAAGTACATTATATAATAAATAG [XGTACX_site3282] | 8.66 ± 0.59
81 | CAAATATATGTTTTCACACACAAAAGAAATGAAACC [CACACA_site2162] | 9.26 ± 0.46
82 | AAAAAAAATAAAATGAATAAATAAGAATTACATATT [CACACA_negctrl_site863] | 8.53 ± 0.59
83 | ATAATATATTATTATAGTACTTTATTTTATTTTATG [XGTACX_site2387] | 8.65 ± 0.5
84 | GGATAGATCATTTACACACACAAAAAAAAAAAAAAA [CACACA_site2139] | 9.21 ± 0.57
85 | AATATATATATACATACATGCATACATATATATATA [TGCATGCA_site784] | 8.98 ± 0.35
86 | AAAAAGAAGATATATACACACCAAAAAAAAAAAAAA [CACACA_site7471] | 8.9 ± 0.47
87 | TACTATAAAATGGAATGTACACATAAATATATCTAA [XGTACX_site6137] | 8.72 ± 0.47
88 | ATATGATGTAAAAGCACACATATATATATATATATA [CACACA_site4018] | 10.075 ± 0.0071
89 | GTTTATAACTATGTGTGTACACATTAATCGTTTTTC [XGTACX_site4364] | 9.24 ± 0.54

From the supplement of paper PMC11417369
